Source: EP0183129A1, “Quinolonecarboxylic acid derivatives” (KYORIN PHARMACEUTICAL CO., LTD., priority 1984, dated 1986)
Like-named read-outs stand apart in the source and are kept apart here.

Tests used:
[1] = Absorption and distribution: concentration in blood and organs after oral administration, bioassay by cup method; assay type: in vivo; settings: rat, rats, fasted, 10 mg/kg oral, Mean ± S.D. (n=5); for concentration at 0.5 h: 1/2 hr after administration; for concentration at 1 h: 1 hr after administration; for concentration at 2 h: 2 hr after administration; for concentration at 4 h: 4 hr after administration; for concentration at 6 h: 6 hr after administration; for concentration at 8 h: 8 hr after administration
Description: Experiment-4 Absorption, distribution and excretion
The blood, organs, bile and urine of the fasted rats, which had received the dose of 10 mg/kg of the test compound by oral administration, were sampled over a period of time and the proportion of active compound was determined bacteriologically by the cup method using E. coli NIHJ JC-2. All those results make it possible to guarantee a greater therapeutic action of the present compound than that of the reference compound because of higher concentration of active compound in comparition with the reference compound.

[2] = Urinary and bile excretion after oral administration, bioassay by cup method; assay type: in vivo; settings: rat, fasted rats, 10 mg/kg oral, Mean ± S.D. (n=5)
[3] = kidney, read-out: Concentration in organs: Kidney
[4] = liver, read-out: Concentration in organs: Liver
[5] = lung, read-out: Concentration in organs: Lung
[6] = serum, read-out: Concentration in organs: Serum

SMILES: O=C(O)c1cn(C2CC2)c2cc(N3CCNCC3)c(F)cc2c1=O [CFLX, Ciprofloxacin, reference compound]
- concentration at 0.5 h [1, 3]: 3580 ± 2610 ng/g
- concentration at 1 h [1, 3]: 2050 ± 640 ng/g
- concentration at 2 h [1, 3]: 1120 ± 340 ng/g
- concentration at 4 h [1, 3]: 210 ± 20 ng/g
- concentration at 6 h [1, 3]: 100 ± 40 ng/g
- concentration at 8 h [1, 3]: 60 ± 20 ng/g
- concentration at 0.5 h [1, 4]: 5170 ± 2530 ng/g
- concentration at 1 h [1, 4]: 3280 ± 980 ng/g
- concentration at 2 h [1, 4]: 1490 ± 370 ng/g
- concentration at 4 h [1, 4]: 390 ± 50 ng/g
- concentration at 6 h [1, 4]: 210 ± 110 ng/g
- concentration at 8 h [1, 4]: 150 ± 50 ng/g
- concentration at 0.5 h [1, 5]: 860 ± 580 ng/g
- concentration at 1 h [1, 5]: 600 ± 190 ng/g
- concentration at 2 h [1, 5]: 290 ± 20 ng/g
- concentration at 4 h [1, 5]: 140 ± 20 ng/g
- concentration at 6 h [1, 5]: 70 ± 30 ng/g
- concentration at 8 h [1, 5]: 60 ± 10 ng/g
- concentration at 0.5 h [1, 6]: 470 ± 280 ng/mL
- concentration at 1 h [1, 6]: 380 ± 110 ng/mL
- concentration at 2 h [1, 6]: 250 ± 50 ng/mL
- concentration at 4 h [1, 6]: 90 ± 30 ng/mL
- concentration at 6 h [1, 6]: 50 ± 10 ng/mL
- concentration at 8 h [1, 6]: 30 ± 10 ng/mL
- concentration at 3 h ([2]; bile 0 ~ 3 hr, read-out: Concentration, bile): 11100 ± 4400 ng/mL
- dose excreted at 3 h ([2]; bile 0 ~ 3 hr, read-out: Recovery, bile): 1.3 ± 0.7%
- dose excreted at 24 h ([2]; bile 0 ~ 24 hr, read-out: Recovery, bile): 2.5 ± 0.8%
- concentration at 6 h ([2]; bile 3 ~ 6 hr, read-out: Concentration, bile): 5900 ± 2600 ng/mL
- concentration at 24 h ([2]; bile 6 ~ 24 hr, read-out: Concentration, bile): 1500 ± 600 ng/mL
- concentration at 3 h ([2]; urine 0 ~ 3 hr, read-out: Concentration, urine): 101000 ± 36000 ng/mL
- dose excreted at 3 h ([2]; urine 0 ~ 3 hr, read-out: Recovery, urine): 3.9 ± 2.9%
- dose excreted at 24 h ([2]; urine 0 ~ 24 hr, read-out: Recovery, urine): 8.9 ± 1.8%
- concentration at 6 h ([2]; urine 3 ~ 6 hr, read-out: Concentration, urine): 57000 ± 19000 ng/mL
- concentration at 24 h ([2]; urine 6 ~ 24 hr, read-out: Concentration, urine): 12000 ± 6000 ng/mL
